Experimental data published in ChEMBL document CHEMBL1201862, “PubChem BioAssay data set” (2004).

system: NCI-H322M; assay: NCI anticancer screen, dose series, 48 h

Row | SMILES | GI50
1 | COc1ccc2c(=O)cc(-c3ccncc3)oc2c1OC | inactive: 29.7 µM
2 | Nc1ncnc2c1nc(O)n2-c1ccccc1 | inactive: > 100 µM
3 | O=C1/C(=C/c2ccccc2)CN(C(=O)CCN2CCOCC2)C/C1=C\c1ccccc1 | inactive: 7.31 µM
4 | COC1=C(OC)C(=O)C(C/C=C/c2c(Cl)nc3sccn23)=C(C)C1=O | inactive: 20.1 µM
5 | CC(C)(C)OC(=O)NC1CCC(C(C)(C)C)CC1 (stereo unspecified) | inactive: > 100 µM
6 | [N-]=[N+]=C1CNC(=O)NC1=O | inactive: > 100 µM
7 | CCOc1ccccc1NC(=O)CSc1nnc(Cc2ccccc2)o1 | inactive: > 100 µM
8 | CC(C)OC(=O)[C@H]1ON2O[C@H](O[C@@H]3CCCC[C@H]3c3ccccc3)C([Si](C)(C)c3ccccc3)[C@H]3OC(=O)[C@@H]1C32 (stereo partly specified) | inactive: > 100 µM
9 | CCOC(=O)c1[nH]c2cccc3c2c1CC[C@H](NC(=O)C(F)(F)F)C3=O | inactive: 24.5 µM
10 | CC1(C)N=[N+]([O-])C1(C)C | inactive: > 100 µM
11 | COC12OC3(C4OC41)C(C(=O)O[C@H]3CO[Si](C)(C)C(C)(C)C)C2S(=O)(=O)c1ccccc1 (stereo partly specified) | inactive: > 4.65 µM
12 | COc1cc2c(cc1OC)C(N)CC2=O (stereo unspecified) | inactive: > 100 µM
13 | OC12c3ccccc3C1(N1CCOCC1)CCCCC21OCCCO1 (stereo unspecified) | inactive: > 100 µM
14 | Nc1ccc2c(O)cc(O)nc2n1 | inactive: > 100 µM
15 | Cc1nc2ccccc2c(=O)n1-c1ccccc1F | inactive: > 100 µM
16 | CC1=NN(c2ccccc2)C(=O)/C1=C/c1ccc(O)cc1 | inactive: > 100 µM
17 | O=[N+]([O-])c1c2nc3n(c2cc2c1nc1n2CCC1)CCC3 | inactive: > 100 µM
18 | Nc1ccccc1N/C(=C\C(=O)C(Cl)(Cl)Cl)c1ccccc1 | inactive: 31.5 µM
19 | CCCC1=C(OC)C(=O)c2c(C)cc(Cl)nc2C1=O | inactive: 14.9 µM
20 | CSc1nc(NC(C)C)c2c(n1)Sc1nc3ccccc3n1N=C2 | inactive: 4.12 µM
21 | Cc1cn(C2CC(O)C(Cn3nncc3Cn3ncc(=O)[nH]c3=O)O2)c(=O)[nH]c1=O (stereo unspecified) | inactive: > 100 µM
22 | CN(OC(=O)CC(=O)c1ccccc1)C(=O)Cc1ccccc1 | inactive: > 100 µM

Row | SMILES | GI50
23 | O=c1ncccn1[C@@H]1O[C@H](CO)[C@H](O)C1O (stereo partly specified) | inactive: > 100 µM
24 | C=C1C(=O)O[C@@H]2C[C@@]3(C)CC(=O)C=C(C)[C@@H]3C[C@H]12 | inactive: 42.7 µM
25 | N#CC(C#N)=C1CCCS(=O)(=O)c2ccccc21 | inactive: > 100 µM
26 | CC1=NNC(=O)[C@H]2[C@H]1CCC1[C@@H]2CC[C@]2(C)[C@@H](O)CC[C@@H]12 (stereo partly specified) | inactive: > 100 µM
27 | COC(=O)c1cccc(OC)c1C#Cc1c(OC)cccc1OC | inactive: > 100 µM
28 | CN(Cc1cnc2nc(N)nc(N)c2n1)c1ccc(C(=O)NCCCC(=O)O)cc1 | inactive: 63.5 µM
29 | CC(=O)C1=C(C)N(c2ccc(C)cc2)C2(O)C3=C(C(=O)c4ccccc4C3=O)C(O)=CC12Cl (stereo unspecified) | inactive: 38.4 µM
30 | Nc1nc(N)c(/N=N/c2ccc(C(=O)O)c(O)c2)c(N)n1 | inactive: > 100 µM
31 | O=C(O)CC(NC(=O)/C(=C/c1ccccc1)NC(=O)c1ccccc1)C(=O)O (stereo unspecified) | inactive: > 100 µM
32 | O=C1OC(c2ccccc2)=N/C1=C/C=C/c1ccco1 | inactive: > 100 µM
33 | Cc1c(-c2ccccc2)c(C#N)c2nnn(C3CCCCC3)c(=O)n12 | inactive: > 100 µM
34 | CC(C)=CCC/C(C)=C/Cc1c(O)c(C)cc2c1[nH]c1cc(O)ccc12 | inactive: > 25 µM
35 | CC(=O)c1cc2c3c(c1)c1cc4c(cc1c(=O)n3CC2)OCO4 | inactive: 25.6 µM
36 | CCOC(=O)N1Cc2ccoc2C1 | inactive: > 100 µM
37 | CCOc1ccccc1N1C(=O)C(=O)C(c2nc3ccccc3o2)C(=O)C1=O | inactive: 78.3 µM
38 | Cc1ccc(C(=O)CC2(O)C(=O)Nc3c(C)cc(Cl)cc32)cc1 (stereo unspecified) | inactive: > 100 µM
39 | CCOC(OCC)C(CC)[Se]c1ccccc1 (stereo unspecified) | inactive: > 100 µM
40 | COc1cc(OC2OC(CO)C(O)C(O)C2O)c2c(c1)O[C@@H]1[C@H](O)Oc3cc(OC)c(OC)cc3[C@]1(O)C2=O (stereo partly specified) | inactive: > 25 µM
41 | O=C(Cc1cccs1)N[C@@H]1C(=O)N2C(C(=O)OC(c3ccccc3)c3ccccc3)=C(CO)CS[C@H]12 | inactive: > 100 µM
42 | ClC(Cl)(Cl)C1CCOC1n1nnc2ccccc21 (stereo unspecified) | inactive: > 100 µM
43 | CC1=Nc2ccccc2NC(c2ccoc2)C1 (stereo unspecified) | inactive: > 100 µM
44 | CCC(=O)O[C@H]1CC[C@H]2[C@@H]3CCC4=C/C(=N/OC(=O)c5cccc6cc7ccccc7nc56)CC[C@]4(C)[C@H]3CC[C@]12C | inactive: > 100 µM

Row | SMILES | GI50
45 | CC(=O)C1=C(c2ccccc2)N(C2OC(CO)C(O)C(O)C2O)C(S)=C(C#N)C1c1ccc(Cl)cc1 (stereo unspecified) | inactive: 35.1 µM
46 | COc1ccc2c(-c3ccc(OCCN(C)C)cc3)c(Oc3ccccc3)c(=O)oc2c1 | inactive: 3.85 µM
47 | [O-]/[N+](=C\c1ccccc1)[C@H](COCc1ccccc1)c1ccccc1 | inactive: > 100 µM
48 | CN(C)c1ccc(/C=c2\sc3nnc(-c4cccnc4)n3c2=O)cc1 | inactive: > 100 µM
49 | CCOC(=O)C(C)NC(=O)C(C)NC(=O)C(C)NC(=O)C(C)NC(=O)C(C)NC(=O)OCc1ccccc1 (stereo unspecified) | inactive: > 100 µM
50 | CCCCCC1C2C(=O)NC(=O)C1C(=O)NC2=O (stereo unspecified) | inactive: > 100 µM
51 | Cc1cc(O)nc(NN2C(Cl)C(=O)C2c2ccc([N+](=O)[O-])cc2)n1 (stereo unspecified) | inactive: 11.8 µM
52 | Nc1nc(=S)n(-c2ccc(Cl)cc2)c2nc3ccccc3cc12 | inactive: 28.3 µM
53 | O=C1c2ccccc2C(=O)N1n1c(Cc2ccc([N+](=O)[O-])cc2)n[nH]c1=O | inactive: > 100 µM
54 | Cc1ccc(S(=O)(=O)[N-]C2C(=O)c3ccccc3C(=O)C2[n+]2cccc(C(N)=O)c2)cc1 (stereo unspecified) | inactive: 38.5 µM
55 | Cc1ccc(S(=O)(=O)c2ccc(C)cc2[N+](=O)[O-])c([N+](=O)[O-])c1 | inactive: > 100 µM
56 | C[C@]12CC[C@H]3[C@@H](CC[C@]4(O)C[C@@H](O)CC[C@]34/C=N/O)[C@@]1(O)CC[C@@H]2C1=COC(=O)C1 | active: 0.206 µM
57 | Cc1cc(N(CCOS(C)(=O)=O)CCOS(C)(=O)=O)ccc1C=O | inactive: 2.44 µM
58 | O=S(O)CCCSSc1ccccc1 | inactive: > 100 µM
59 | CC1(C)CCC[C@]2(C)[C@@H]1CC[C@@]13O[C@@H]1C1=C(CO)C(=O)O[C@]14O[C@@H]4[C@@H]23 | inactive: 14.9 µM
60 | O=C1C2C3C=C4c5ccccc5N(c5ccccc5)C4([C@@H]2C(=O)N1c1ccc(F)cc1)[C@H]1C(=O)N(c2ccc(F)cc2)C(=O)[C@@H]31 (stereo partly specified) | inactive: > 100 µM
61 | C=CC1C(OC2OC(CO)C(O)C(O)C2O)OC=C(C(=O)OC)C1CC=O (stereo unspecified) | inactive: > 100 µM
62 | CC1(Cl)C(=O)NC(=O)N([C@H]2C[C@H](O)[C@@H](CO)O2)C1N=[N+]=[N-] (stereo partly specified) | inactive: > 100 µM
63 | O=[N+]([O-])c1nccn1CCCNc1c2ccccc2[n+]([O-])c2ccccc12 | inactive: > 100 µM
64 | CC(=O)OCCOCn1cnc2c(Cl)nc(Cl)nc21 | inactive: 25.2 µM
65 | COc1ccc(-c2oc3cc(OC)c(OC)c(O)c3c(=O)c2OC)cc1 | inactive: > 100 µM
66 | CN1CC2CC(C1)c1cccc(=O)n1C2 (stereo unspecified) | inactive: > 100 µM

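Compound exposure: 48 hours, 5 concentrations, 96-well plates. GI50 = concentration required for 50% inhibition of growth.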 Active and inactive are the calls of the source. No stated cut-off is given here; in the data, active = GI50 up to about 1.1 µM and inactive = higher.
